Data as given in PubChem BioAssay (NCATS).
Inconclusive results, whose numbers are uncertain, are shown with a selection of clear calls. Where the call is inconclusive, the potency comes from a doubtful curve fit. Activity calls are given as the source filed them. Calls follow the shape of the dose curve; as a rule, active = well fitted activation curve with a large enough effect in the signal ratio, with a control signal flat (not every such curve was filed as active); inconclusive = small, poorly fitted or top-dose-only effect, or effect the other way, or a change in a side signal; inactive = flat fitted curve, though single readings scatter; the % refers to the signal ratio.

Assay: qHTS Assay for Identification of Small Molecule Agonists for Hypoxia Response Element Signaling Pathway (AID 914); as to activation: top concentration of the series differs between compounds; % of control where 0% means no effect
Settings: ME-180 (cervical carcinoma) HRE-bla reporter, beta-lactamase ratio, CoCl2, 17 h; activation: active compounds read high
Description: NIH Molecular Libraries Screening Centers Network [MLSCN]
NIH Chemical Genomics Center [NCGC]
Hypoxia-inducible factor-1 (HIF-1) is the major hypoxia-regulated transcription factor that controls cellular responses to low oxygen concentration. HIF-1 is composed of two subunits: hypoxia responsive HIF-1 alpha and constitutively expressed HIF-1 beta, which is also known as aryl hydrocarbon receptor nuclear translocator. During hypoxic conditions, HIF-1 alpha heterodimerizes with HIF-1 beta and translocates into the nucleus where the HIF-1 complex binds to the hypoxia-response element (HRE) and activates expression of target genes such as VEGF (vascular endothelial growth factor). HIF-1 alpha protein levels are elevated in many solid tumors, including those of the cervix and brain. Within tumors, cells that are the greatest distance from blood vessels and therefore the most hypoxic express the highest levels of HIF-1 alpha. Therapeutic blockade of the HIF-1 signaling pathway in cancer cells therefore provides an attractive strategy for development of anticancer drugs.
Using a beta-lactamase reporter-gene under control of the hypoxia response element, a cell-based assay [CellSensor(TM) HRE-bla ME-180 developed by Invitrogen Corp.] was used to measure hypoxia-induced signaling. Library compounds were measured for their ability to positively modulate the action of EC50 CoCl2 on reporter gene activity. Compounds were screened in a titration series in 1536-well format. Positive modulators were identified based on the AC50 values derived from the screening data.
NCGC Assay Protocol Summary:
2500 cells/5uL in Opti-MEM medium containing 0.5% dialyzed FBS, 0.1 mM NEAA, 1 mM sodium pyruvate and 10 mM HEPES was dispensed into 1536-well plates and cells were cultured at 37 degrees Celsius overnight. Next day 23 nL of compounds or DMSO were delivered to each well using a pin tool, and 1uL of EC50 level of CoCl2, or EC100 level of CoCl2, or assay medium was added. And then the plates were incubated at 37 degrees Celsius for 17 hours. 1 uL of CCF4-dye mixture was added to each well. After incubated at room temperature for 2.5 hours the plates were measured on an EnVision plate reader at Excitation 405nm, Emission1=460nm and Emission 2=530nm. The %Activity was determined from the ratio of 460nm/530nm.
Potency is read from the fitted curve at half-maximal effect; tags tell the direction and shape of the fitted curve or compound fluorescence and quenching.

| Structure (SMILES) | Potency | activation |
| --- | --- | --- |
| COC(=O)N1CCC2(CC1)CN(c1cccc(-c3ccccc3)c1)C2 | inconclusive: 1.58 µM [inhibitor, partial curve] | – |
| CS(=O)(=O)c1ccc2nc(NC(NC(=O)c3ccco3)(C(F)(F)F)C(F)(F)F)sc2c1 | inconclusive: 6.31 µM [inhibitor, partial curve] | – |
| Cc1ccc(CNC(=O)c2cc3c(=O)n4ccccc4nc3n(CC3CCCO3)c2=N)cc1 (stereo not given) | active: 7.94 µM | – |
| COc1cccc(-c2ccc3ncnc(N(C)C)c3c2)c1 | inconclusive: 5.01 µM [inhibitor, partial curve] | – |
| CC(=O)Oc1ccccc1C1OC(=O)c2ccccc2N1C(C)=O (stereo not given) | inconclusive: 12.6 µM [inhibitor, single point] | – |
| O=C(c1ccc2c3c(cccc13)C(=O)N(O)C2=O)N1CCCCC1 | inconclusive: 10 µM [inhibitor, partial curve, poor fit] | – |
| COc1ccc2cc1Oc1ccc(cc1)C[C@@H]1c3c(cc(OC)c4c3Oc3cc5c(cc3O4)CCN[C@H]5C2)CCN1C | – | inconclusive: 16% |
| Cc1nc2oc(C(=O)c3ccc(Br)cc3)c(N)c2c2c1COC(C)(C)C2 | inconclusive: 3.98 µM [activator, partial curve] | – |
| COc1ccc(C(=O)N2CCC3(CC2)CN(CC(C)C)C3)cc1 | inconclusive: 0.0251 µM [inhibitor, full curve, poor fit] | – |
| Cc1cccc(CNc2nc(-c3ccc4c(c3)OCO4)nc3ccccc23)c1 | – | inactive: 6.93% |
| O=C(CSc1nc2ccccc2c(=O)n1CC1CCCCC1)N1CCOCC1 | inconclusive: 3.98 µM [inhibitor, partial curve] | – |
| O=C1CC(N(O)C2CC(=O)N(Cc3ccccc3)C2=O)C(=O)N1Cc1ccccc1 (stereo not given) | – | inconclusive: -5.2% |
| Cn1c(OCc2ccc3c(c2)OCO3)nc2c1c(=O)n(Cc1cccc(Cl)c1)c(=O)n2C | – | inconclusive: -42.1% |
| Cc1sc(-n2c(C)ccc2C)c(C#N)c1C | – | inactive: 5.91% |
| CC1(C)N=C(N)N=C(N)N1CCCCc1ccccc1 | inconclusive: 5.01 µM [inhibitor, single point] | – |
| CN(C)C(=O)C1CCN(Cc2c[nH]c3ccccc23)CC1 | – | inactive: 16.5% |
| COc1ccc(-c2nc3cnc(N(C)C)nc3n(Cc3cccs3)c2=O)cc1 | inconclusive: 5.01 µM [activator, single point] | – |
| N[C@@H](CSC1(c2ccc(Cl)cc2)c2ccccc2-c2ccccc21)C(=O)O | inconclusive: 3.16 µM [inhibitor, single point] | – |
| COCc1cc(=O)[nH]c(Nc2nc3ccccc3o2)n1 | inconclusive: 1.26 µM [inhibitor, full curve] | – |
| COCCn1c(=O)c(-c2cccc(C#N)c2)nc2cnc(Oc3ccccc3)nc21 | inconclusive: 1 µM [activator, single point] | – |

| Structure (SMILES) | Potency | activation |
| --- | --- | --- |
| FC(F)(F)c1ccccc1-c1nc(-n2ccnc2)c2ccccc2n1 | – | inactive: 2.67% |
| OC1CC2CC[C@H](C1)N2CCCN1c2ccccc2Sc2ccc(Cl)cc21 (stereo not given in full) | – | inconclusive: 4.24% |
| C=C(Br)CN1CCN(CC(=C)Br)CC1 | – | inconclusive: -31.9% |
| CCNc1ncc2nc(-c3cc(F)cc(F)c3)c(=O)n(CCc3ccccc3)c2n1 | active: 1 µM | – |
| O=c1c(-c2cccs2)nc2cnc(Oc3ccccc3)nc2n1-c1ccccc1 | active: 2.51 µM | – |
| Clc1ccc(C=Nc2ccc3c(c2)Cc2ccccc2-3)c(Cl)c1 | – | inconclusive: 6.2% |
| CCC(=O)O[C@@]1(C(=O)CCl)[C@@H](C)C[C@@H]2[C@H]3CCC4=CC(=O)C=C[C@@]4(C)[C@]3(F)[C@@H](O)C[C@@]21C | – | inconclusive: -26.9% |
| CCCc1[nH]nc2c1C(c1cccc(OC)c1)C(C#N)=C(N)O2 (stereo not given) | inconclusive: 10 µM [inhibitor, partial curve] | – |
| Cc1cnc(CNc2nc(-c3ccc(N(C)C)cc3)nc3ccccc23)cn1 | – | inconclusive: 34.4% |
| CN(C)c1ncc2nc(-c3cccs3)c(=O)n(C[C@H]3CCCO3)c2n1 | – | inactive: -3.72% |
| CN1C[C@H](c2ccccc2)C(O)([C@]2(c3ccccc3)CN(C)C[C@@H](c3ccccc3)C2=O)[C@H](c2ccccc2)C1 (stereo not given in full) | – | inconclusive: 11.9% |
| CCCCCNC(=O)C(C#N)c1nc2ccccc2nc1N1CC(C)OC(C)C1 (stereo not given) | – | inconclusive: 27.5% |
| CCOC(=O)C1=C(CSc2nc3c(cc2C#N)CN(C)CC3)OC(N)=C(C#N)C1c1ccccc1 (stereo not given) | – | inconclusive: -23.2% |
| CS(=O)(=O)Nc1cccc(-c2nc(NCc3cccs3)c3ccccc3n2)c1 | – | inconclusive: -27% |
| COc1cc([C@H]2c3cc4c(cc3[C@@H](O[C@H]3O[C@H]5CO[C@@H](C)O[C@H]5[C@@H](O)[C@@H]3O)[C@@H]3COC(=O)[C@H]23)OCO4)cc(OC)c1O | inconclusive: 0.316 µM [inhibitor, full curve] | – |
| COc1ccc(NC(=O)CSC2=C(C#N)C(c3ccco3)C3=C(CCCC3=O)N2)c(OC)c1 (stereo not given) | – | inactive: -27.4% |
| O=C(/C=C\c1ccc(O)c(O)c1)OCCc1ccccc1 | inconclusive: 5.01 µM [inhibitor, partial curve] | – |
| COc1ccc(NC(=O)N2CCCC3(CCN(S(=O)(=O)c4ccccc4)CC3)C2)cc1 | inconclusive: 2 µM [inhibitor, partial curve] | – |
| O=c1[nH]c(SCc2cccc([N+](=O)[O-])c2)nc2nc[nH]c12 | – | inconclusive: -6.36% |
| Cc1ncn(-c2ccccc2O)c1C | inconclusive: 3.16 µM [inhibitor, single point] | – |
